Test results from patent US8741807B2 (priority 2011, dated 2014).

Tests used:
[1] = tested on: OsPR1b, PBZ1, WRKY45, and OsNPR1; experiment: Resistance marker gene expression in the presence of polyamine oxygenase inhibitor guazatine or ABA
Protocol: In the graphs, Mock denotes the results obtained with a treatment using a solution not containing a test compound, and ABA denotes results obtained with a treatment using abscisic acid.
(§1) 1 mM Aqueous solutions of the spermidine derivatives were prepared, and added with Tween 20 at a final concentration of 0.01%. Each solution was sprayed on leaf blades of the rice plant cultivated for one week by hydroponics, and after 24 hours, RNAs were extracted. Expression of OsPR1b, PBZ1 and WRKY45, which are rice plant disease damage resistance marker genes, in each sample was measured by using real-time PCR.
In the same manner as that of Example 6, effect of YIS12OH4N (HydLau) at 3 mM on expression of rice plant disease damage resistance marker genes OsPR1b, PBZ1, WRKY45, and OsNPR1 was examined in the presence of 5 mM guazatine (GAZ), which is a polyamine oxygenase (PA) inhibitor.

[2] = tested on: OsPR1b, PBZ1 and WRKY45; experiment: Expression of rice plant disease damage resistance marker genes by real-time PCR after spraying; conditions: 1 mM aqueous solution (0.01% Tween 20) sprayed on leaf blades, RNA after 24 hours; tendency
Protocol: as §1
as §1, with “YIS12OH1N (1NHydLau) and YIS12OH4N (HydLau)” for “the spermidine derivatives”

Row | SMILES | enhancement of expression of rice plant disease damage resistance marker genes in the presence of guazatine ([1]; YIS12OH4N 3 mM with 5 mM guazatine (GAZ)) | expression of resistance marker genes OsPR1b, PBZ1 and WRKY45 [2] | effect on disease damage resistance induced by the compound of the present invention ([1]; treatment with abscisic acid together with YIS12OH4N (HydLau, 3 mM), FIG. 14)
1 | NCCCCN(CCCN)C(=O)CCCCCCCCCCCO [YIS12OH4N, ^4N-(12-hydroroxylauroyl)-spermidine] | further promoted | induced expression of the resistance marker genes | –
2 | NCCCCNCCCNC(=O)CCCCCCCCCCCO [YIS12OH1N, 1-N-(12-hydroroxylauroyl)-spermidine] | – | induced expression of the resistance marker genes | –
3 | CC1=CC(=O)CC(C)(C)[C@@]1(O)/C=C/C(C)=C\C(=O)O [ABA, abscisic acid, reference compound] | – | – | inhibitory effect against disease damage resistance
